{
  "source": "PubChem BioAssay AID624296",
  "about": "(National Center for Advancing Translational Sciences (NCATS), 2012)",
  "note": "Among all 350,000 compounds or so, about 9,900 (2.8%) were called active. Inconclusive results, whose numbers are uncertain, are shown with a selection of clear calls. Calls follow the shape of the dose curve; as a rule, active = well fitted activation curve with a large enough effect; inconclusive = small, poorly fitted or top-dose-only effect; inactive = no such curve, though single readings can be large or run the other way. No potency is given beside an inconclusive call; the fits are too rough. Potency is read from the fitted curve at half-maximal effect; tags tell the direction and shape of the fitted curve.",
  "data": [
    {"assay": "A quantitative high throughput screen for small molecules that induce DNA re-replication in MCF 10a normal breast cells; also: nearly all actives have a fitted effect of over 50% in size.", "conditions": "MCF 10A DNA re-replication, Hoechst nuclear intensity, 48 h; series mostly up to 46.1 µM", "values": [
      {"smiles": "CCOc1ccc(NC(=O)c2ccc(N3CC4CC(C3)c3cccc(=O)n3C4)c(NC(=O)CCN3CCOCC3)c2)cc1", "note": "(stereo not drawn)", "Potency": "inactive"},
      {"smiles": "COc1ccc(CNC(=O)c2sc3nc4c(c(C(F)(F)F)c3c2N)CCC4)cc1OC", "Potency": "inconclusive [activator, partial curve]"},
      {"smiles": "COC(=O)c1sc(NC(=O)COc2cccc3ccccc23)nc1C", "Potency": "active: 18.4 µM"},
      {"smiles": "Cc1ccc(CNC(=O)COC(=O)c2cc3c(s2)CCC(C)C3)cc1", "note": "(stereo not drawn)", "Potency": "inconclusive [activator, single point]"},
      {"smiles": "O=[N+]([O-])c1cccc(NC(=S)Nc2nc(-c3ccccc3Cl)cs2)c1", "Potency": "inconclusive [activator, partial curve]"},
      {"smiles": "CCCCNc1oc(-c2cccs2)nc1S(=O)(=O)c1ccccc1", "Potency": "inconclusive [activator, partial curve, poor fit]"},
      {"smiles": "CC(C)(C)OC(=O)N1CCC(c2cc(=O)n3[nH]cc(C(=O)Nc4ccc(F)c(Cl)c4)c3n2)CC1", "Potency": "inactive"},
      {"smiles": "CCN(CC)CCNS(=O)(=O)c1ccc(OC)c(Br)c1", "Potency": "inconclusive [activator, single point]"},
      {"smiles": "Cc1cc(NC(=O)CCC(=O)N(c2ccccc2)C2(C(=O)NC3CCCCC3)CCCC2)no1", "Potency": "inactive"},
      {"smiles": "CC(=O)c1c(C)[nH]c(C(=O)NCCC2=CCCCC2)c1C", "Potency": "inconclusive [activator, full curve]"},
      {"smiles": "CCc1nc(C)cn1S(=O)(=O)c1cc(C)c(OC)c(C)c1C", "Potency": "inconclusive [activator, partial curve, poor fit]"},
      {"smiles": "COc1ccc(C)cc1N(CC(=O)NCCSCc1ccco1)S(=O)(=O)c1ccc(C)cc1", "Potency": "inconclusive [activator, single point]"},
      {"smiles": "CCOC(=O)c1sc(NC(=O)COc2ncnc3ccccc23)c(C(=O)OCC)c1C", "Potency": "inactive"},
      {"smiles": "COc1ccc(NS(=O)(=O)c2ccc(NS(=O)(=O)c3ccc(SC)cc3)cc2)c(OC)c1", "Potency": "inconclusive [activator, single point]"},
      {"smiles": "COc1ccc(-c2sc3cc(OC)c(OC)cc3c2C#CC(C)(C)O)cc1", "Potency": "inconclusive [activator, full curve, poor fit]"},
      {"smiles": "O=C(NC(=S)Nc1cc(Cl)ccc1N1CCOCC1)c1ccc(-c2cccc(Cl)c2)o1", "Potency": "inactive"},
      {"smiles": "O=C(N/N=C/c1ccc([N+](=O)[O-])o1)c1cc(-c2ccc(-c3ccccc3)cc2)nc2ccccc12", "Potency": "active: 0.92 µM"},
      {"smiles": "Cc1ccc(C)c(CN2C(=O)c3ccccc3S(=O)c3ccc(C(=O)N4CCN(c5ccccn5)CC4)cc32)c1", "note": "(stereo not drawn)", "Potency": "inconclusive [activator, single point]"},
      {"smiles": "Cc1[nH]c2ccc(C(=O)NC3CCC(C)CC3)cc2c1C", "note": "(stereo not drawn)", "Potency": "inactive"},
      {"smiles": "CCC1Oc2ccc(C)cc2N(CC(=O)NCc2ccccc2OC)C1=O", "note": "(stereo not drawn)", "Potency": "inconclusive [activator, partial curve, poor fit]"},
      {"smiles": "Cc1ccc(CN(C)C(=O)c2cccc(S(=O)(=O)N3CCCC3)c2)cc1", "Potency": "inactive"},
      {"smiles": "Cc1nn(CC(=O)Nc2ccc(Cl)cc2Cl)c(=O)c2ccccc12", "Potency": "inactive"},
      {"smiles": "N#Cc1cc(C(=O)c2cc(Br)ccc2O)cn(Cc2ccccc2)c1=O", "Potency": "inconclusive [activator, single point]"},
      {"smiles": "O=C1/C(=C/c2ccccc2F)SC(=S)N1CC(=O)N1CCCCC1c1cccnc1", "note": "(stereo not drawn)", "Potency": "inconclusive [activator, partial curve, poor fit]"},
      {"smiles": "O=C(O)C1CCN(C(=O)c2ccccc2N2C(=O)[C@@H]3Cc4c([nH]c5ccccc45)C(c4cccc(Cl)c4)N3C2=O)CC1", "note": "(stereo partly drawn)", "Potency": "inconclusive [activator, full curve, poor fit]"},
      {"smiles": "C#CCSc1nc(Cc2ccc(Cl)cc2)nc2ccccc12", "Potency": "inconclusive [activator, partial curve]"},
      {"smiles": "O=S(=O)(c1ccc(Cl)cc1)N1CCN(c2ccc(N3CCOCC3)nn2)CC1", "Potency": "inconclusive [activator, partial curve, poor fit]"},
      {"smiles": "Cc1c(/C=N/NC(=O)CNc2ccccc2)c2ccccn2c1C(=O)c1ccccc1", "Potency": "inconclusive [activator, partial curve, poor fit]"},
      {"smiles": "CCN(CC)S(=O)(=O)c1ccc(NC2CCN(Cc3ccccc3)CC2)nc1", "Potency": "inconclusive [activator, single point]"},
      {"smiles": "CCC1CCCCN1C(=O)c1cc(S(=O)(=O)N2CCOCC2)ccc1C", "note": "(stereo not drawn)", "Potency": "inactive"},
      {"smiles": "CCOc1ccc(CN2CCNC(=O)C2CC(=O)NCc2ccccn2)cc1", "note": "(stereo not drawn)", "Potency": "inconclusive [activator, full curve, poor fit]"},
      {"smiles": "Clc1ccccc1CN1CCN(/N=C/C=C\\c2ccco2)CC1", "Potency": "inconclusive [activator, single point]"},
      {"smiles": "COc1ccc(/C=N/OCC(=O)N2CC3(C)CC2CC(C)(C)C3)cc1OC", "note": "(stereo not drawn)", "Potency": "inactive"},
      {"smiles": "COc1ccccc1C(=O)C1CCCN(C(=O)CN2CCCCC2=O)C1", "note": "(stereo not drawn)", "Potency": "inactive"},
      {"smiles": "COc1cc(S(=O)(=O)Nc2cccc(C)c2)ccc1NC(=O)c1cccnc1", "Potency": "inconclusive [activator, partial curve]"},
      {"smiles": "CCOc1ccc(S(=O)(=O)NC(Cc2c[nH]c3ccccc23)C(=O)O)cc1", "note": "(stereo not drawn)", "Potency": "inactive"},
      {"smiles": "COc1cccc(CN2CCN(S(=O)(=O)c3ccc(Br)cc3)CC2)c1", "Potency": "inactive"},
      {"smiles": "N/C(Cc1ccc(Cl)c(Cl)c1)=N\\OC(=O)c1ccc(Br)o1", "Potency": "inconclusive [activator, partial curve]"},
      {"smiles": "Cc1cc(C)cc(-n2c(C)cc(C(=O)CSc3nnnn3C)c2C)c1", "Potency": "inconclusive [activator, single point]"},
      {"smiles": "CN1CCN(CCCOc2ccc(-c3ccccc3)cc2)CC1", "Potency": "inconclusive [activator, single point]"},
      {"smiles": "Cn1c(C(=O)NCCCN2CCCCCC2)cc2c(=O)n(C)c3ccccc3c21", "Potency": "inactive"},
      {"smiles": "CC(Oc1ccc(Cl)cc1Cl)C(=O)Nc1cccc(O)c1", "note": "(stereo not drawn)", "Potency": "inactive"},
      {"smiles": "COc1cccc(N2CCN(c3nc(-c4ccccc4C)cc(=O)[nH]3)CC2)c1", "Potency": "inconclusive [activator, full curve]"},
      {"smiles": "Cc1nnsc1C(=O)Nc1ccc(S(=O)(=O)N2CCCCC2)cc1", "Potency": "inactive"},
      {"smiles": "O=C(N/N=C/c1ccc([N+](=O)[O-])cc1)c1cccnc1", "Potency": "inactive"},
      {"smiles": "Cc1ccc(NC(=O)Cn2c(-c3ccc(F)cc3)cnc2SCC(=O)Nc2c(C)cccc2C)cc1", "Potency": "active: 4.61 µM"},
      {"smiles": "Nc1nnnn1/N=C/c1ccc(O)cc1", "Potency": "inconclusive [activator, partial curve, poor fit]"},
      {"smiles": "O=C(NNc1ccccc1)C(=O)NNc1ccccc1", "Potency": "inconclusive [activator, full curve, poor fit]"},
      {"smiles": "COc1ccc(S(=O)(=O)N2CCCCC2)cc1NC(=O)c1ccc2ccccc2n1", "Potency": "inactive"},
      {"smiles": "COc1ccc(CCNc2ncnc3c2c(C)c(C)n3CCO)cc1OC", "Potency": "inactive"},
      {"smiles": "CCOc1cc(/C=N/NC(=O)COc2ccc(C)cc2)ccc1OC(=O)c1cccs1", "Potency": "inactive"},
      {"smiles": "Cn1c(C(=O)OC(C(=O)NC2CCCC2)c2cccnc2)cc2sccc21", "note": "(stereo not drawn)", "Potency": "active: 10.3 µM"},
      {"smiles": "Cc1ccc(Nc2cc(C)c3ccc(O)cc3n2)cc1C", "Potency": "active: 23.1 µM"},
      {"smiles": "CCOc1ccc(Nc2nc(N)nc(CN3CCN(c4ccccc4F)CC3)n2)cc1", "Potency": "inconclusive [activator, single point]"},
      {"smiles": "CC(CN1CCOCC1)OC(=O)c1ccc2c(c1)OCCO2", "note": "(stereo not drawn)", "Potency": "inactive"},
      {"smiles": "CN(CC(=O)Nc1ccc(Cl)c(C(F)(F)F)c1)C(=O)c1ccccc1SCC(=O)N1CCCC1", "Potency": "inconclusive [activator, single point]"},
      {"smiles": "CCN1CCN(c2cc(C)c3cc(NC(=O)c4cncc(Br)c4)ccc3n2)CC1", "Potency": "inconclusive [activator, single point]"},
      {"smiles": "COc1ccc2c(CC(=O)N3CCc4cc(OC)c(OC)cc4C3)coc2c1", "Potency": "inconclusive [activator, single point]"},
      {"smiles": "Cc1ccc(NC(=O)CN2CCCC2c2cccs2)cc1S(=O)(=O)N1CCCCC1", "note": "(stereo not drawn)", "Potency": "inconclusive [activator, partial curve, poor fit]"},
      {"smiles": "Cc1ccc(NC(=O)CCN2C(=O)c3cccc([N+](=O)[O-])c3C2=O)c(Br)c1", "Potency": "inconclusive [activator, single point]"},
      {"smiles": "Cn1c(=O)n(Cc2ccc(F)cc2)c(=O)c2c1nc1n2CCCN1C1CCCCC1", "Potency": "inconclusive [activator, partial curve, poor fit]"},
      {"smiles": "COc1ccccc1OCc1nnc(SCC(=O)c2cc(Cl)ccc2OC)o1", "Potency": "inconclusive [activator, single point]"},
      {"smiles": "C=CCN1C(c2ccc(OCC)cc2)=CS/C1=C(\\C#N)c1nnc2n1CCCCC2", "Potency": "inconclusive [activator, partial curve, poor fit]"},
      {"smiles": "Cc1cc(NC(=O)Cn2nnc3sc4c(c3c2=O)CCC(C(C)(C)C)C4)no1", "note": "(stereo not drawn)", "Potency": "inconclusive [activator, single point]"},
      {"smiles": "FC(F)(F)c1cccc(CNC2CCN(Cc3ccccc3)CC2)c1", "Potency": "inconclusive [activator, single point]"},
      {"smiles": "COc1ccc(-c2nn(-c3ccccc3)cc2C(=O)N(C)CC(=O)Nc2ccccc2Br)cc1", "Potency": "inconclusive [activator, single point]"},
      {"smiles": "COc1cc(/C=N/Nc2ccccc2)ccc1O", "Potency": "inconclusive [activator, single point]"},
      {"smiles": "Cc1nn(CC(=O)Nc2ccc3c(c2)nc(CCN2CCCCC2)n3C)c(=O)c2ccccc12", "Potency": "active: 16.4 µM"}
    ]}
  ]
}
